In patent US20240400659A1 (BIOATLA, published 2024):

Key:
[1] = molecular target: T1, very low-density lipoprotein receptor (UniProt P98155 28-797, limits assumed); test: pH affinity ELISA, coated target, PBS + 30 mM sodium bicarbonate
T1 construct: also called VLDLR; VLDR

[2] = molecular target: T2, low-density lipoprotein receptor (UniProt P01130 22-788, limits assumed); test: as above
T2 construct: also called LDLR

Sortilin [3] = molecular target: T3, Sortilin (UniProt Q99523 78-755, limits assumed); test: as above
T3 sequence (looked up): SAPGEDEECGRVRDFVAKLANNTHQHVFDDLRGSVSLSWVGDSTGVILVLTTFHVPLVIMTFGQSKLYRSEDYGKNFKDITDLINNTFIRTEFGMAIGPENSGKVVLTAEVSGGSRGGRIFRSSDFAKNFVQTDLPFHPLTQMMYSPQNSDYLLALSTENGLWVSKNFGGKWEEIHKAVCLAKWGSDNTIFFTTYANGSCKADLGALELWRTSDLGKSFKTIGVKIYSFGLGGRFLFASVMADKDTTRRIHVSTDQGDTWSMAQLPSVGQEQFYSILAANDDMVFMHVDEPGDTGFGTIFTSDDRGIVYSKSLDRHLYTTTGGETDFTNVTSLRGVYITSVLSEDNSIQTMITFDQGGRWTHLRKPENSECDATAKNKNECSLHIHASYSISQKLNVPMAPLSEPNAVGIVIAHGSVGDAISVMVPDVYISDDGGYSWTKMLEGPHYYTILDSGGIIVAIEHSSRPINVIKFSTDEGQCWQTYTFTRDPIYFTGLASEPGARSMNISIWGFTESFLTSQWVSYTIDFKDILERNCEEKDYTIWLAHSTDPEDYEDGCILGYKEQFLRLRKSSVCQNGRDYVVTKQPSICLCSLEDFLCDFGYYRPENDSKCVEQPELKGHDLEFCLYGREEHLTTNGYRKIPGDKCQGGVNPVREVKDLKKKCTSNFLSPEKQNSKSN

[4] = molecular target: T1, very low-density lipoprotein receptor; test: pH affinity ELISA, coated target, pH 6.0, PBS
[5] = molecular target: T2, low-density lipoprotein receptor; test: pH affinity ELISA, coated target, pH 6.0, PBS
Sortilin [6] = molecular target: T3, Sortilin; test: pH affinity ELISA, coated target, pH 6.0, PBS
[7] = molecular target: T1, very low-density lipoprotein receptor; test: pH affinity ELISA, coated target, pH 7.4, PBS
[8] = molecular target: T2, low-density lipoprotein receptor; test: pH affinity ELISA, coated target, pH 7.4, PBS
Sortilin [9] = molecular target: T3, Sortilin; test: pH affinity ELISA, coated target, pH 7.4, PBS
[10] = molecular target: T1, very low-density lipoprotein receptor; test: pH affinity ELISA, coated target, pH 7.4, PBS + 30 mM sodium bicarbonate
[11] = molecular target: T2, low-density lipoprotein receptor; test: as above
Sortilin [12] = molecular target: T3, Sortilin; test: as above
[13] = molecular target: T1, very low-density lipoprotein receptor; test: pH affinity ELISA, coated target, PBS
[14] = molecular target: T2, low-density lipoprotein receptor; test: pH affinity ELISA, coated target, PBS
Sortilin [15] = molecular target: T3, Sortilin; test: pH affinity ELISA, coated target, PBS
[16] = molecular target: T1, very low-density lipoprotein receptor; test: pH affinity ELISA, coated target, pH 6.0, PBS + 30 mM sodium bicarbonate
[17] = molecular target: T2, low-density lipoprotein receptor; test: as above
Sortilin [18] = molecular target: T3, Sortilin; test: as above

T2 sequence (P01130 22-788 limits assumed): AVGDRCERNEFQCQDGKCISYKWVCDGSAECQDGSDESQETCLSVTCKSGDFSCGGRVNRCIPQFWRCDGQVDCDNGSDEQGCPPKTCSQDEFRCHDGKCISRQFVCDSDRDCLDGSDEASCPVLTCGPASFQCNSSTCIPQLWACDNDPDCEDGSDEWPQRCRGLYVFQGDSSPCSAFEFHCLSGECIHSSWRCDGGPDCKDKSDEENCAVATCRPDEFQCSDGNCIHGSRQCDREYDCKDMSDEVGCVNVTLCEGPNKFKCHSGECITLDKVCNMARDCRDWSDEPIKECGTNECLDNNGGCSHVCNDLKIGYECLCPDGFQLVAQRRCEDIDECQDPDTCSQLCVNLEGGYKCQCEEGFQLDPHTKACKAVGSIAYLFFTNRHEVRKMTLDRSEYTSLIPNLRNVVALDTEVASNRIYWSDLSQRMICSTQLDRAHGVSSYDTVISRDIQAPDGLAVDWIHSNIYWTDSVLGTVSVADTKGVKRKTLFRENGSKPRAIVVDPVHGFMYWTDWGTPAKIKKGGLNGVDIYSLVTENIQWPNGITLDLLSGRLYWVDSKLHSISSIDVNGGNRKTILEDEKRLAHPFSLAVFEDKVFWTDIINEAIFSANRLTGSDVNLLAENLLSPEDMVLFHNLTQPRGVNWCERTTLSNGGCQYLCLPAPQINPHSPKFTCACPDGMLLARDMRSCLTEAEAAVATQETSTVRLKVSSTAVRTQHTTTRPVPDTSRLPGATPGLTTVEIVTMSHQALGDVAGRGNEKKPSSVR

B1: Apolipoprotein E4 (ligand)
chain: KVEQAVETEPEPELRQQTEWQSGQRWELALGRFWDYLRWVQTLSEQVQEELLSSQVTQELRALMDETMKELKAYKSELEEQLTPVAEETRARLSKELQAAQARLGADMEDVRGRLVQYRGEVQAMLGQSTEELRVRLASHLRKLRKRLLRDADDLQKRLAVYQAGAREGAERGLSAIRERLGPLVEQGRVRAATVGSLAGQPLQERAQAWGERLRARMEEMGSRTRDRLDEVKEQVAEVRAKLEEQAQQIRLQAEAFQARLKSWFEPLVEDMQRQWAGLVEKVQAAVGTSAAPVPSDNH
notes: also called ApoE4; hApoE4
B1 was tested, and the “Fold change - PBS + sodium bicarb (EC50 pH 7.4 divided by EC50 pH 6.0)” value [1] was 6.48 fold, the “Fold change - PBS + sodium bicarb (EC50 pH 7.4 divided by EC50 pH 6.0)” value [2] was 4.32 fold and the “Fold change - PBS + sodium bicarb (EC50 pH 7.4 divided by EC50 pH 6.0)” value (Sortilin [3]) was 5.45 fold. The EC50 [4] was 0.41 µg/mL, the EC50 [5] was 0.6 µg/mL and the EC50 (Sortilin [6]) was 0.38 µg/mL. The EC50 [7] was 1.08 µg/mL, the EC50 [8] was 3.05 µg/mL and the EC50 (Sortilin [9]) was 2.1 µg/mL. The EC50 [10] was 3.1 µg/mL, the EC50 [11] was 6.56 µg/mL and the EC50 (Sortilin [12]) was 7.38 µg/mL. The “Fold change - PBS (EC50 pH 7.4 divided by EC50 pH 6.0)” value [13] was 2.65 fold, the “Fold change - PBS (EC50 pH 7.4 divided by EC50 pH 6.0)” value [14] was 5.11 fold and the “Fold change - PBS (EC50 pH 7.4 divided by EC50 pH 6.0)” value (Sortilin [15]) was 5.55 fold. For the same binder, the EC50 [16] was 0.48 µg/mL, the EC50 [17] was 1.52 µg/mL and the EC50 (Sortilin [18]) was 1.36 µg/mL.
